Source: patent US20230143604A1, “QW DOSING OF GIP RECEPTOR AGONIST PEPTIDE COMPOUNDS AND USES THEREOF” (TAKEDA PHARMACEUTICAL COMPANY LIMITED, priority 2020, published 2023)
For some of these results: Part of at least one peptide drawing is inferred or uncertain, most often the ends. Some results were stated once for a whole list of compounds, not compound by compound. Starred links: 1 amine or outer side, 2 acyl side, 3 side chain; linkers in the order of their positions; H or OH if unused. Non-standard residues stand in square brackets, D forms with d. Residues, ends and D or L forms follow the SMILES beside them. Groups on a side chain read outwards from the residue. *: point of attachment. C18 diacid = O=C(O)CCCCCCCCCCCCCCCCC(=O)*; γGlu = O=C(O)[C@H](CCC(=O)[*:2])N[*:1]; AEEA = NCCOCCOCC(=O)O; Aib = CC(C)(N)C(=O)O

Assays:
[1] = system: Dogs; type: in vivo; details: Table 8; time point not stated
Procedure: Dogs are transferred to an observation cage (700 mm W×700 mm D×700 mm H [W×D×H], without food) on 1 day before each apomorphine challenge. The dogs are weighed by using an electronic balance then test peptide compounds and vehicle will be administrated via the subcutaneous route. Apomorphine is challenged at 8 hr after the administration and emetic events will be monitored for 1 h by video recording. The second apomorphine challenge will be 72 hr after the administration and emetic events will be recorded by the same protocol. Emesis symptoms are continuously recorded using a video camera and stored on a blue ray disc. Observation of symptoms include retching (a rhythmic contraction of the abdomen) and vomiting (vomiting behavior, including the elimination of vomitus or similar behavior). Besides, the combination of retching and vomiting is defined as emesis, and the number of episodes, latency (time elapsed from morphine administration until the onset of the first emesis symptom), duration (time elapsed between the onset of the first and final episodes of emesis), and frequency (number of animals showing emesis/number of experimental animals) of each of these symptoms is calculated. The latency in cases where emesis symptoms are not noted is taken as the maximum value (1 h for apomorphine challenge) at the end of observation. When the duration of the emesis symptoms is less than 1 min, the duration is recorded, for convenience, as 1 min.

[2] = molecular target: T1, human GIPR (Homo sapiens, UniProt P48546); assay: Human GIPR agonist activity, intracellular cAMP accumulation; type: cell-based; details: HEK-293T cells overexpressing human GIPR, 1 hr, read-out: Human GIPR cAMP EC50, HEK293T
T1 construct: HEK-293T cells overexpressing full-length human GIPR; FLAG (N); host or cells: HEK-293T
T1 sequence (P48546 22-466): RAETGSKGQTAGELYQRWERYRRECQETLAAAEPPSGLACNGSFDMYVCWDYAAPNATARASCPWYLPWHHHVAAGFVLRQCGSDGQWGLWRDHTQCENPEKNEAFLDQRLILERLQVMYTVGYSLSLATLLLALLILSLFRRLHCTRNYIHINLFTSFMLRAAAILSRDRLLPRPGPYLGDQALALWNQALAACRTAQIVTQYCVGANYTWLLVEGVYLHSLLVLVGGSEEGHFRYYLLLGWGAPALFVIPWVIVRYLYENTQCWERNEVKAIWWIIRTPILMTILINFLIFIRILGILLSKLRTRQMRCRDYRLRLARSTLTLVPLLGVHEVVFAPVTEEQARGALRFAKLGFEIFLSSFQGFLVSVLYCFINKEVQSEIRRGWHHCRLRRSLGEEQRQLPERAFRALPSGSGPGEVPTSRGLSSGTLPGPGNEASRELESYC

[3] = system: female beagle dogs; assay: PYY-1119-induced vomiting in dogs; type: in vivo; details: 3 nmol/kg s.c., 72 hours post-dose (lower line)
[4] = system: C57BL/6J mice; assay: Oral glucose tolerance test (OGTT); type: in vivo; details: 3 nmol/kg s.c., 24 hours before glucose loading
Procedure, shortened: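 Peptide or vehicle given s.c. at 0.1, 0.3, 3 or 10 nmol/kg (peptide-dependent), 24 h before oral 50% dextrose at 5 ml/kg unless stated otherwise. Blood glucose read at 0, 15, 30 and 60 min. % inhibition = (1−(AUC cpd−AUC naïve)/(AUC veh−AUC naïve))×100.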

SMILES | inhibition of the frequency of emetic events, apomorphine [1] [%] | EC50 [2] [pM] | Inhibition (%) of PYY-1119-induced emetic event [3] | Oral Glucose Tolerance Test Percent decrease in blood glucose AUC (%) over 60 mins [4]
CC[C@H](C)[C@H](NC(=O)[C@H](CO)NC(=O)[C@H](Cc1ccc(O)cc1)NC(=O)[C@H](CC(=O)O)NC(=O)[C@H](CO)NC(=O)[C@@H](NC(=O)[C@H](Cc1ccccc1)NC(=O)[C@@H](NC(=O)CNC(=O)[C@H](CCC(=O)O)NC(=O)C(C)(C)NC(=O)[C@H](Cc1ccc(O)cc1)NC)[C@@H](C)O)[C@@H](C)CC)C(=O)N[C@@H](C)C(=O)N[C@@H](CC(C)C)C(=O)N[C@@H](CC(=O)O)C(=O)N[C@@H](CCCNC(=N)N)C(=O)N[C@@H](CCCCNC(=O)CNC(=O)CNC(=O)CNC(=O)CNC(=O)CNC(=O)CCCCCCCCCCCCCCCCC(=O)O)C(=O)N[C@@H](C)C(=O)N[C@@H](CCC(N)=O)C(=O)NC(C)(C)C(=O)N[C@@H](CC(=O)O)C(=O)N[C@@H](Cc1ccccc1)C(=O)N[C@H](C(=O)N[C@@H](CC(N)=O)C(=O)N[C@@H](Cc1c[nH]c2ccccc12)C(=O)N[C@@H](CC(C)C)C(=O)N[C@@H](CC(C)C)C(=O)N[C@@H](C)C(=O)N[C@@H](CCC(N)=O)C(=O)N[C@@H](CO)C(=O)N1CCC[C@H]1C(=O)N[C@@H](CO)C(=O)N[C@@H](CO)C(=O)NCC(=O)N[C@@H](C)C(=O)N1CCC[C@H]1C(=O)N1CCC[C@H]1C(=O)N1CCC[C@H]1C(=O)N[C@@H](CO)C(N)=O)C(C)C [Compound 50, Me-Y-Aib-E-G-T-F-I-S-D-Y-S-I-A-L-D-R-Km-A-Q-Aib-D-F-V-N-W-L-L-A-Q-S-P-S-S-G-A-P-P-P-S-NH2] | > 70 |  |  | 
CC[C@H](C)[C@H](NC(=O)[C@H](CO)NC(=O)[C@H](Cc1ccc(O)cc1)NC(=O)[C@H](CC(=O)O)NC(=O)[C@H](CO)NC(=O)[C@@H](NC(=O)[C@H](Cc1ccccc1)NC(=O)[C@@H](NC(=O)CNC(=O)[C@H](CCC(=O)O)NC(=O)C(C)(C)NC(=O)[C@@H](N)Cc1ccc(O)cc1)[C@@H](C)O)[C@@H](C)CC)C(=O)N[C@@H](C)C(=O)N[C@@H](CC(C)C)C(=O)N[C@@H](CC(=O)O)C(=O)N[C@@H](CCCCN)C(=O)NC(C)(C)C(=O)N[C@@H](C)C(=O)N[C@@H](CCC(N)=O)C(=O)N[C@@H](CCCNC(=N)N)C(=O)N[C@@H](CCCCNC(=O)COCCOCCNC(=O)COCCOCCNC(=O)CC[C@H](NC(=O)CC[C@H](NC(=O)CCCCCCCCCCCCCCCCC(=O)O)C(=O)O)C(=O)O)C(=O)N[C@@H](Cc1ccccc1)C(=O)N[C@H](C(=O)N[C@@H](CCC(=O)O)C(=O)N[C@@H](Cc1c[nH]c2ccccc12)C(=O)N[C@@H](CC(C)C)C(=O)N[C@@H](CC(C)C)C(=O)N[C@@H](C)C(=O)N[C@@H](CCC(N)=O)C(=O)N[C@@H](CCCNC(=N)N)C(=O)NCC(=O)O)C(C)C [Compound 156] (H-Y[Aib]EGTFISDYSIALDK[Aib]AQRK([AEEA-AEEA-γGlu-γGlu-C18 diacid])FVEWLLAQRG-OH) |  | 1.3 | 55% (3 nmol/kg) | 13% (3 nmol/kg)
